The campaign covered roughly 94,000 compounds. About 4,000 (4.3%) were called active. Inconclusive means that the source gave no clear call. Such entries were picked first, then a sample of the others. Calls come from the whole dose curve; as a rule, active = well fitted inhibition curve with a large enough effect; inconclusive = small, poorly fitted or top-dose-only effect; inactive = no such curve, though single readings can be large or run the other way. Potencies of inconclusive entries are doubtful fits and often do not repeat.
assay: Cytotoxic Profiling in NIH 3T3 Cell Line of Diverse Libraries Using Quantitative High-Throughput Screening; conditions: NIH 3T3 viability, CellTiter-Glo ATP luminescence, 48-72 h; series mostly up to 96.7 µM; note: nearly all actives have a fitted effect of over 55% in size
Method in brief: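 First NIH 3T3 cells are plated at 400 cells/well; next compound is pinned in; then plates incubate 48 or 72 hr at 37 °C; finally CellTiter-Glo is added and luminescence read after 10 min.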
Potency is the fitted concentration of half-maximal effect; tags give direction and shape of the fitted curve.

Structure (SMILES)	Potency
CC(C)NC(=O)NC[C@H]1O[C@@H](CC(=O)N2CCc3ccccc32)[C@H](O)[C@@H]1O	inconclusive: 100 µM [inhibitor, partial curve, poor fit]
CC(C)S(=O)(=O)N1CCC(N(Cc2cccnc2)C2CCOCC2)CC1	inconclusive: 70.8 µM [inhibitor, single point]
COC(=O)CNC(=O)c1ccc2nnc(-c3cccc(OC(F)(F)F)c3)n2c1	inactive
COc1cccc(CNC(=O)c2ccc3nnc(-c4ccccc4OC)n3c2)c1	inactive
CCNC(=O)c1c(C)oc2c1CN(Cc1sccc1C)CC2	inconclusive: 50.1 µM [inhibitor, partial curve, poor fit]
COc1cc2c(cc1-c1c(-c3ccccc3)ncn1CCCO)CCC2	inconclusive: 79.4 µM [inhibitor, partial curve]
Cc1nc2cnccn2c1C(=O)NCC(F)(F)F	inactive
Cc1ccc(S(=O)(=O)N2CCC(CCC(=O)NC3CC3)CC2)cc1	inconclusive: 70.8 µM [inhibitor, single point]
CCOC(=O)C1CCCN(C(=O)C2CCN(c3ccnc4ccnn34)CC2)C1 (configuration not stated)	inconclusive: 39.8 µM [inhibitor, partial curve, poor fit]
CSc1ccc(-c2cccc(C(=O)NCCN[S+](=O)([O-])c3ccc(C)cc3)c2)cc1	inconclusive: 31.6 µM [inhibitor, full curve]
O=C(Nc1cc(-c2ccccn2)nn1-c1ccccc1)c1cccc(Cl)c1	inconclusive: 50.1 µM [inhibitor, partial curve, poor fit]
CC(=O)Nc1ccc(CN2CCc3nc(C(C)C)nc(-c4ccc(Cl)cc4)c3CC2)cc1	inactive
COc1cccc(CNC(=O)CCC2CCN(C(=O)c3ccccc3)CC2)c1	inactive
CNC(=O)c1cc(C)nc2onc(C3CCN(C(=O)c4cccc(C)c4)C3)c12 (configuration not stated)	inactive
CCCN1CCCC12Cc1ccccc1CN(C(=O)C(C)C)C2 (configuration not stated)	inconclusive: 89.1 µM [inhibitor, single point]
CN(C)c1ccc(CN(C)C2CCc3ccccc32)cc1 (configuration not stated)	inconclusive: 44.7 µM [inhibitor, partial curve, poor fit]
COc1ccc(-c2c(C(=O)Nc3cccc(Cl)c3)nc3sccn23)cc1	inconclusive: 89.1 µM [inhibitor, partial curve, poor fit]
Cc1ccc(-c2noc([C@@H]3Cc4nc[nH]c4CN3Cc3ccccc3)n2)cc1	active: 79.4 µM
O=C(Cc1ccc2c(c1)OCO2)N(Cc1ccncc1)Cc1cccc(OCCc2ccc(F)cc2)c1	active: 35.5 µM
COc1cccc(-c2cc3c(=O)n(CCNC(=O)c4cccc(Cl)c4)ccn3n2)c1	inactive
CC#CCn1cc2c3c(cccc31)[C@H](CC(C)C)N[C@H](C(=O)NC1CCCC1)C2	active: 35.5 µM
Cn1cc(CN2CCCC23CCN(c2ccc(C(F)(F)F)cn2)CC3)cc1C#N	inconclusive: 50.1 µM [inhibitor, partial curve, poor fit]
CNC(=O)c1cc(C2CC2)nc2onc(C3CCN(C(=O)N(C)C)C3)c12 (configuration not stated)	inactive

Structure (SMILES)	Potency
Cc1cccc(OCCc2noc(C3CCCN3C(=O)Nc3ccccc3)n2)c1 (configuration not stated)	inconclusive: 50.1 µM [inhibitor, partial curve, poor fit]
CC1CCC2(CC1)NC(=O)N(CC(=O)NC1CCCC1)C2=O (configuration not stated)	inactive
Cc1ccc(-c2ccccc2CN2CCN(C(=O)Nc3ccc(Cl)cc3)CC2)cc1Cl	inconclusive: 14.1 µM [inhibitor, full curve]
CCCNC(=O)N1CC[C@@H](CC(=O)O)[C@@H](CC2=NCCc3ccc(C(C)(C)C)cc32)C1	inconclusive: 112 µM [inhibitor, single point]
O=c1cc(-c2ccncc2)oc2c(-c3ccc(CO)cc3)nccc12	inconclusive: 7.94 µM [inhibitor, full curve, poor fit]
COc1ccccc1-c1cc(C(=O)NCc2cnn(C)c2)c2c(c1)N(C)CCO2	inconclusive: 100 µM [inhibitor, single point]
O=C(NCCOc1ccccc1)[C@@H]1C[C@@H](c2ccc(F)cc2)N([S+](=O)([O-])c2cccnc2)C1	inconclusive: 28.2 µM [inhibitor, full curve]
O=C(c1ccc(Cl)nc1)N1CCc2nc(C3CC3)nc(-c3ccc(Cl)cc3)c2C1	inconclusive: 50.1 µM [inhibitor, partial curve, poor fit]
Cc1nn(CC(=O)O)c(=O)c2nc(-c3ccccc3)sc12	inactive
COc1cccc(CN2CCC(Cc3ncc(C)n3Cc3ccccc3)C2)c1 (configuration not stated)	active: 35.5 µM
O=C(NCCc1ccccc1)c1cn2cc(-c3ccc(C(F)(F)F)cc3)sc2n1	inactive
CCN1C(=O)C2(CCN(S(=O)(=O)c3c(C)nn(C)c3C)CC2)c2ccccc21	inactive
COc1cccc(Nc2ncc(-c3cccnc3)c3c2OCC3)c1	inconclusive: 50.1 µM [inhibitor, partial curve, poor fit]
COc1cccc(C(=O)N2C(C(=O)NC3CC3)COC23CCN(C(=O)c2ccc(Cl)cc2)CC3)c1 (configuration not stated)	inconclusive: 50.1 µM [inhibitor, partial curve, poor fit]
COCc1nnc2n1CCC(NC(=O)CCn1cccn1)CC2 (configuration not stated)	inactive
CCc1ccc(CNC(=O)c2cc3n(n2)CC(c2ccc(Cl)cc2)OC3)cc1 (configuration not stated)	active: 39.8 µM
COc1ccc(NC(=O)N2C[C@@H]3C[C@H](C2)c2ccc(NC(=O)COc4ccccc4)c(=O)n2C3)cc1	inactive
CCC1(O)CCC12CCN(C(=O)c1ccc(OC)c(F)c1)CC2 (configuration not stated)	inconclusive: 70.8 µM [inhibitor, single point]
Cc1ccc(-n2c(C3CCN(C(=O)c4cc(-c5ccc(F)cc5)n[nH]4)CC3)n[nH]c2=O)cc1	inconclusive: 31.6 µM [inhibitor, full curve, poor fit]
O=C(C1CCCN1C(=O)Cc1ccccn1)N1CCC(N2Cc3ccccc3C2=O)CC1 (configuration not stated)	inactive
c1ccc2oc([C@H]3CCN(C4CCCCC4)C3)nc2c1	inactive
CNc1ccc(-c2noc([C@@H]3CCCN3Cc3ccccn3)n2)cn1	inconclusive: 100 µM [inhibitor, partial curve]
COc1ccc([C@H]2C[C@@H](O)[C@@H](O)[C@@H]2NC(=O)C2CCC2)cc1	inactive

Structure (SMILES)	Potency
O=C(NCc1ccccn1)c1nc2sccn2c1-c1cccc(C(F)(F)F)c1	active: 31.6 µM
CCOC(=O)C1CCN(C(=O)c2ccc3nnc(-c4cccnc4)n3c2)CC1	inactive
COc1cc(OC)cc(-c2nn(-c3ccc(C)cc3C)c(OC(C)=O)c2-c2ccc(NC(C)=O)cc2)c1	inconclusive: 50.1 µM [inhibitor, single point]
COc1ccc(F)cc1-c1cccc(C(=O)NCC(=O)NCC(F)F)c1	inactive
COc1ccc(CC(=O)Nc2ccc3n(c2=O)C[C@H]2C[C@@H]3CN(C(=O)c3ccc4ccccc4c3)C2)cc1	inconclusive: 56.2 µM [inhibitor, partial curve, poor fit]
COc1ccc(C(=O)N2C[C@@H]3OCC(=O)N(CC4CCCCC4)[C@@H]3C2)cc1	inconclusive: 100 µM [inhibitor, partial curve, poor fit]
COc1ccccc1C(=O)N1CCC2(CC1)CC(N(C1CC1)S(C)(=O)=O)CCO2 (configuration not stated)	inconclusive: 35.5 µM [inhibitor, partial curve]
COc1ccc(C(=O)N2CCC3(CC2)OC(=O)N(Cc2ccc(O)cc2)C3(C)c2ccccc2)cn1 (configuration not stated)	inconclusive: 50.1 µM [inhibitor, partial curve, poor fit]
c1cc(-c2nc3c(c(NCc4cn5c(n4)SCC5)n2)CCNCC3)ccn1	inconclusive: 100 µM [inhibitor, single point]
CCc1csc(CNC(=O)c2ccc(OCC3(C)CCCNC3)nc2)n1 (configuration not stated)	inactive
Cc1cccc(CC(=O)NC2CCN(c3cc(-c4cccs4)[nH]n3)C2)c1 (configuration not stated)	inconclusive: 17.8 µM [inhibitor, full curve]
CCCN(CC1CCOC1)C(=O)Nc1cc(F)c(F)c(F)c1 (configuration not stated)	inconclusive: 70.8 µM [inhibitor, single point]
CCc1ccccc1OCC(=O)c1ccc2c(c1)N(CC(=O)Nc1ccc(F)cc1)C(=O)CO2	active: 31.6 µM
Cc1cc(C(=O)N2CCCCC2c2nc(CCOCC3CCOCC3)no2)nn1C (configuration not stated)	inactive
CN(c1cc(=O)c2ccnc(NCc3ccc4c(c3)OCO4)c2o1)C1CCOCC1	active: 31.6 µM
CCCc1ccc2oc(C(=O)NCCc3nncn3CC)c(C)c2c1	inconclusive: 89.1 µM [inhibitor, single point]
CCCc1sc(NC(=O)C[C@H]2NC(=O)c3ccccc3NC2=O)nc1C(=O)OC	inconclusive: 70.8 µM [inhibitor, partial curve, poor fit]
CN(C)c1ccc(C(=O)NC2CCCN(c3cc(-c4ccccc4)[nH]n3)C2)cc1 (configuration not stated)	inconclusive: 44.7 µM [inhibitor, partial curve, poor fit]
Cc1noc(C)c1-c1cc(-c2cccc(CO)c2)cn2cncc12	inconclusive: 39.8 µM [inhibitor, partial curve, poor fit]
O=C(c1ccccc1)N1CC(Oc2ccc(F)c(F)c2)C1	inconclusive: 89.1 µM [inhibitor, partial curve, poor fit]
COc1ccc(-c2nccn2CC(CO)Cc2ccsc2)cc1O (configuration not stated)	inconclusive: 8.91 µM [inhibitor, full curve, poor fit]

Reference: PubChem BioAssay AID1345082 (National Center for Advancing Translational Sciences (NCATS), 2018)
